The structures appear in SMILES notation. About 2,200 (0.71%) of roughly 310,000 compounds showed an effect of 50% or more. The effect is printed as a negative number. The list shows a part of the results.

The target of this assay is human ether-à-go-go-related gene (hERG) potassium channel (human, UniProt Q12809). The assay can be described thus: primary screen, population patch clamp on CHO cells stably expressing hERG.
human ether-à-go-go-related gene (hERG) potassium channel, sequence (Q12809 whole entry, looked up): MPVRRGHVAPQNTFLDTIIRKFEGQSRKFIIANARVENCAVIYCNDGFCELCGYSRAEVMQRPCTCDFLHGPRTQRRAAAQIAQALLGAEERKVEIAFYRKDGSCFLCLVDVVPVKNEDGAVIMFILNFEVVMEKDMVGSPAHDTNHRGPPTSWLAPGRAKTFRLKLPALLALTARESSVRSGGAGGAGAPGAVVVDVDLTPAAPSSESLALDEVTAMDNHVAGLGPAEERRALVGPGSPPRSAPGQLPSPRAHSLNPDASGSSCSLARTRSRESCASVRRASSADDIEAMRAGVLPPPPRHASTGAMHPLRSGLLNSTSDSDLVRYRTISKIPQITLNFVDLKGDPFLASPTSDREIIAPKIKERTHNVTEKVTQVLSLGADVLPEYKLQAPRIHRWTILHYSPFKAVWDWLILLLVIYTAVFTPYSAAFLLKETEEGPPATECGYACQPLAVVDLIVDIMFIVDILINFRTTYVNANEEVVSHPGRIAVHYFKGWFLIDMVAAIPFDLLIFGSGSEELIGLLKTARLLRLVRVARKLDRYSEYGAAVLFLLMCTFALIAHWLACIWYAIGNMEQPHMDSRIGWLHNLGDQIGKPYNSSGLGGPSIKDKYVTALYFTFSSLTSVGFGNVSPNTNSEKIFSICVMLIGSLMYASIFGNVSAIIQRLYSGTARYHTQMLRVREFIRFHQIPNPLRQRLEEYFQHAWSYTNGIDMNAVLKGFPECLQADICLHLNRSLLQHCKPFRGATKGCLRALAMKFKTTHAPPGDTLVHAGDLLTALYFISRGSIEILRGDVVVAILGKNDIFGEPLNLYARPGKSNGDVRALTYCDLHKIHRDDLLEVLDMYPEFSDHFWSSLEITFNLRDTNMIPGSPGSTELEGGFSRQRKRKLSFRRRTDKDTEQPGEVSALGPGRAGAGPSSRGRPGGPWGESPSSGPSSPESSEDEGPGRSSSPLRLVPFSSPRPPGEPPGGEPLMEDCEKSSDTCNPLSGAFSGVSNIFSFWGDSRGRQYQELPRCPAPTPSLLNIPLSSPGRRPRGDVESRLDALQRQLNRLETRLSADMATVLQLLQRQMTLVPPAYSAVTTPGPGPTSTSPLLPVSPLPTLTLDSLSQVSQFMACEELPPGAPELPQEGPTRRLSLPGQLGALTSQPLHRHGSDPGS
With `CSc1nc2[nH]c3c(c2c2nnnn12)CCCC3`, the “hERG current change (%, negative = inhibition) at 1uM” value is given as 5.45%.
With `O=C(O)c1ccc(N2CCCCS2(=O)=O)cc1` the figure was 11.9%.
Then `COCC(C)n1c(C)cc(C(=O)CN2c3cccc4cccc(c34)S2(=O)=O)c1C` (stereo not shown), with 7.82%; and `Cc1cc(C)c(C2=CSC3=NS(=O)(=O)CCN23)c(C)c1`, with 10.7%.
With `Cc1cc(C)c(Cc2c(C)nc3c(C(=O)NCc4ccco4)cnn3c2C)c(C)c1` the figure was 5.71%.
With `Cc1ccc(N2C(=O)C3CC(c4ccccc4)=C4C5C=CC(C6C(=O)N(c7ccc(C)cc7)C(=O)C56)C4C3C2=O)cc1` (stereo not shown), the “hERG current change (%, negative = inhibition) at 1uM” value was -74.5%.
Then `C=CCN(c1ccccc1C(=O)O)S(=O)(=O)c1ccc(C)cc1`, with 13.1%; and `CCCC(=O)NCCSC`, with 14.3%; and `CC(C)CNS(=O)(=O)c1ccc(CC(C)C)cc1`, with 13.5%.
With `CC(C)c1ccc(N2CCN(C(=O)c3ccccc3NC(=O)/C=C\C(=O)O)CC2)cc1` the figure was 7.39%; with `O=C(CCCc1ccccc1)NCCCN1CCOCC1`, 11.4%; with `Cl.O=C(CN1CCN(C(=O)c2cccs2)CC1)NC1CCCCC1`, 7.39%.
As to `COc1ccc(C[C@H]2CN3C(=NC[C@@H]3Cc3ccc(O)cc3)N2C[C@H](C)NC(=O)CCC2CCCCC2)cc1`, the “hERG current change (%, negative = inhibition) at 1uM” value is recorded as -14.9%.
Then `CN1CCN(c2ccc(Cl)cc2NC(=O)c2cc(=O)[nH]c3ccccc23)CC1`, with 7.98%.
With `Cn1c(=O)cc(OCC(=O)NCCCN2CCN(Cc3ccccc3)CC2)c2ccccc21` the figure was 3.12%; with `Fc1ccc(CNCc2ccco2)cc1`, 15.7%; with `C=CCN1C(=O)/C(=C\c2cccs2)C(C(=O)OC)=C1C`, 10.5%.
With `COc1cccc(C(=O)C2CCCN(Cc3ccccn3)C2)c1` (stereo not shown) the figure was -0.481%; with `Cc1c(Cc2ccccc2)c(=O)oc2cc(OCC(=O)N[C@@H](Cc3ccccc3)C(=O)O)ccc12`, -0.192%; with `C=CCc1cc(C(=O)N2CCCCC2)ccc1O`, 15.2%.
Regarding `O=C(NCc1ccco1)c1ccc2ccccc2n1`, the “hERG current change (%, negative = inhibition) at 1uM” value is 12%.
Take `Cc1ccc(S(=O)(=O)NCC(=O)N/N=C/c2ccc(Cl)cc2)cc1`: the “hERG current change (%, negative = inhibition) at 1uM” value was -2.22%.
Then `O=c1c2sccc2n(Cc2ccc(F)cc2)c(=O)n1-c1ccc(F)cc1`, with 8.53%.
With `CC(C)OC(=O)Cc1nc2sc(-c3ccccc3)cc2c(=O)[nH]1` the figure was 7.42%; with `O=C(/C=C/c1ccccc1)NNC(=O)c1cccnc1`, 14.9%.
`O=C(O)C(c1ccccc1)N1C(=O)c2cccc3cccc(c23)C1=O` (stereo not shown): the “hERG current change (%, negative = inhibition) at 1uM” value worked out at 12.3%.
With `COc1cc(OC)cc(C(=O)N[C@H](C(=O)NCc2ccc(F)cc2)C(C)C)c1` the figure was 10.8%; with `CN1CCC(OC(=O)c2cccc(Cl)c2)CC1.Cl`, 6.08%.
Then `Cc1nnc(SC(C)C(=O)Nc2ccc(Cl)cn2)n1Cc1ccccc1` (stereo not shown), with 1.33%.
Turning to `COc1ccc(-c2csc(NC(=O)C3CCCCN3S(=O)(=O)c3ccccc3)n2)cc1` (stereo not shown), the “hERG current change (%, negative = inhibition) at 1uM” value stood at 13.3%.
Take `CCn1cc(C(=O)NC2CCCCCC2)c(=O)c2ccc(C)nc21`: the “hERG current change (%, negative = inhibition) at 1uM” value was determined as 14.3%.
As for `CN(C(=O)COC(=O)/C=C/c1cccc([N+](=O)[O-])c1)C1CCS(=O)(=O)C1` (stereo not shown), the “hERG current change (%, negative = inhibition) at 1uM” value came to 2.04%.
Then `O=C(CN1C(=O)/C(=C/c2ccccc2)SC1=S)N1CCN(CCc2ccccn2)CC1`, with 6.83%.
Then `COc1cccc(CN2CCN(Cc3ccc(OC)c(OC)c3)CC2CCO)c1` (stereo not shown), with -8.91%.
As for `C#CCOCCOCCOCCNc1nc(N2CCOCC2)nc(N2CCN(C(=O)[C@H]([C@@H](C)CC)n3cc(CCCC[NH3+])nn3)CC2)n1.[Cl-]`, the “hERG current change (%, negative = inhibition) at 1uM” value turned out to be 16.2%.
With `CCN(CC)CCCN1C=C2C(=O)C(C)(OC(=O)C3CCCC3)C(=O)C=C2C=C1c1ccsc1` (stereo not shown) the figure was -0.231%; with `CCC1CCCCN1CCCNC(=O)c1ccc2c(c1)N(Cc1c(F)cccc1Cl)C(=O)CS2` (stereo not shown), 12.2%; with `NC(=O)C1CCN(/C=C2\C(=O)NC(=O)N(Cc3ccco3)C2=O)CC1`, 8.95%.
As to `CCOc1cc(/C=N/NC(=O)c2c(-c3ccccc3)noc2C)ccc1O`, the “hERG current change (%, negative = inhibition) at 1uM” value is on record as 7.02%.
With `O=C(N/N=C/c1c(F)cccc1Cl)C1CC1` the figure was 17.1%; with `CN(C(=O)Cn1nc(C(=O)O)c2ccccc2c1=O)C1(C#N)CCCCC1`, 12%; with `CC(=O)COC(=O)c1ccc2noc(-c3ccccc3)c2c1`, 8.66%.
With `O=C(CSc1nnc(CNc2ccc(F)cc2)n1Cc1ccco1)N1CCOCC1` the figure was 4.83%; with `COC(=O)c1c(NC(C)=O)sc(C(=O)Nc2ccccc2)c1C`, 26.1%; with `CC(NCc1ccc(Cl)cc1)C(O)c1ccccc1.Cl` (stereo not shown), 1.64%.
Then `CCC1CCCCN1CCCNC(=O)C1CCN(S(=O)(=O)N2CCCCC2)CC1` (stereo not shown), with 8.43%; and `COC(=O)c1cccc(NC(=O)c2nn(C)c(=O)c3ccccc23)c1`, with -11.2%.
Consider `Cc1cc(C)n2cc(CSCC(=O)O)nc2n1`, for which the “hERG current change (%, negative = inhibition) at 1uM” value was 22%.
Turning to `CCCCn1c(SCC(=O)OCC)nc2c(sc(=S)n2-c2ccccc2OC)c1=O`, the “hERG current change (%, negative = inhibition) at 1uM” value was 5.29%.
Then `Cc1ccc(/C=N/NC(=O)CSc2nnc(-c3ccc(Cl)cc3)n2-c2ccc(Cl)cc2)o1`, with 9.27%.
With `COc1ccc(N2CCN(C(=O)c3cccc(Br)c3)CC2)c([N+](=O)[O-])c1`, the “hERG current change (%, negative = inhibition) at 1uM” value is -85.9%.
Then `CCCCNS(=O)(=O)c1cc2c3c(c1)CCN3C(=O)CC2`, with 14.8%; and `Cn1c(=O)oc2cc(S(=O)(=O)NCCC(=O)N3CCN(c4ccccc4)CC3)ccc21`, with 15.1%; and `O=C(Nc1ccc(S(=O)(=O)Nc2ncccn2)cc1)C1=NN(c2ccccc2)C(=O)CC1`, with 4.52%.
Then `Cc1ccccc1-c1nn(-c2ccc(F)cc2F)cc1CNCCN(C)C`, with 9.36%.
